Measured values reported in patent US11155580B2, “Modified proteins and methods of use thereof” (YALE UNIVERSITY, priority 2013, dated 2021).
For part of these data: Part of at least one peptide drawing is inferred or uncertain, most often the ends. Some compounds share one wording; it may come from a single statement. Some results were stated once for a whole list of compounds, not compound by compound. Where a SMILES comes first, the peptide text is derived from it. The star is where a group is joined. X2 = C[C@@H]1C[C@H]2[C@@H]3CCC4=CC(=O)C=C[C@]4(C)[C@@]3(F)[C@@H](O)C[C@]2(C)[C@@]1(O)C(=O)CSCCC(=O)*; X1 = CCN(CC)c1ccc2c(-c3ccc(S(=O)(=O)*)cc3S(=O)(=O)[O-])c3ccc(=[N+](CC)CC)cc-3oc2c1

Legend:
HeLa cells = assay: Surface binding and cell uptake by flow cytometry; type: cell-based; conditions: for uptake efficiency, fold better than that of Tat or Arg8: rhodamine labeled; for increase in cell fluorescence: fluorescein labeled, 5 μM, trypsin wash before flow cytometry
[1] = tested on: HeLa cells transfected with GR-GFP; assay: GR-GFP translocation assay (cytosolic access of Dex-labeled molecules); type: cell-based; conditions: for translocation ratio (TR): HeLa cells expressing GR-GFP
Description: HeLa cells transfected with pK7-GR-GFP were plated in Matrical plates as described above. To label nuclei, the media was replaced with HKR buffer containing 300 nM Hoescht and the cells incubated for 30 min at 37° C.
Cells were then analyzed as described above.
HeLa cells transfected with pK7-GR-GFP for 24-36 hr were plated (10^4/well in 200 μL) the day prior to experiments in 96 well glass bottom plates (Matrical). The media was replaced with HKR buffer containing 300 nM Hoescht and the cells incubated for 30 min at 37° C. […] The cells were incubated for a further 30 min at 37° C. before epifluorescence imaging using a Zeiss Axiovert 200M microscope fitted with a mRM digital camera, a 63×1.3NA PlanApo objective and an EXFO-Excite illumination source.
Uptake was allowed to proceed for an additional 30 min at 37° C. before analysis by epifluorescence images as described elsewhere herein.
The image analysis algorithm used by CellProfiler is customizable and contained within a ‘Pipeline’ that describes a series of image manipulation and evaluation steps, such as reading the image, adjusting the intensity, and identifying objects. Each step has several options. […] Using the image of Hoescht fluorescence and Otsu's method of automatic thresholding, nuclei were identified and segmented using 3 class thresholding. The middle class was assigned to background. Closely approximated objects were separated using ‘Laplacian of Gaussian’ modeling, and touching nuclei were divided using the ‘shape’ option. Nuclear regions were expanded by 2 μm to generate an enlarged region. The nuclear region was subtracted from enlarged region to generate a ring surrounding the nucleus (surround). […] The ratio of the median intensities of the nuclear and surrounding region of the GFP or mCherry (as appropriate) image were collected for every cell examined. Those cells falling below a threshold of intensity (10% of the maximum intensity of the image) were discarded as ‘untransfected’. Typically, 20-60 transfected cells from 15-30 images were examined for each experimental condition.

[2] = tested on: HeLa cells transfected with pGR-mCherry and Rab5-GFP or Rab5Q79L-GFP; assay: GR-mCherry translocation in cells expressing Rab5-GFP or Rab5Q79L-GFP; type: cell-based
Description: Cotransfected cells expressing Rab-GFP fusions and pGR-mCherry were identified via their characteristic pattern of green and red fluorescence. The translocation ratio was determined using median values of mCherry fluorescence within the nucleus and surrounding region using CellProfiler.
HeLa cells transfected for 24-36 hr with pGR-mCherry and either Rab5-GFP or Rab5Q79L-GFP were plated (10^4/well in […]) the day prior to experiments in 96 well glass bottom plates (Matrical). The cells were washed with HKR buffer and the nuclei labeled using Hoescht as above. […] The cells were incubated for a further 30 min at 37° C. before imaging. Cells that had been cotransfected with EGFP fusions were identified via their characteristic pattern of green and red fluorescence. To evaluate the extent of GR activation, epifluorescence images were obtained as described above, except the fluorescence of pGR-mCherry was also visualized using Zeiss Filter Set #43 (ex BP 545/25 nm, FT 570, em BP 605/70 nm).
The image analysis algorithm used by CellProfiler is customizable and contained within a ‘Pipeline’ that describes a series of image manipulation and evaluation steps, such as reading the image, adjusting the intensity, and identifying objects. Each step has several options. […] Using the image of Hoescht fluorescence and Otsu's method of automatic thresholding, nuclei were identified and segmented using 3 class thresholding. The middle class was assigned to background. Closely approximated objects were separated using ‘Laplacian of Gaussian’ modeling, and touching nuclei were divided using the ‘shape’ option. Nuclear regions were expanded by 2 μm to generate an enlarged region. The nuclear region was subtracted from enlarged region to generate a ring surrounding the nucleus (surround). The diameter of the surrounding region was chosen to be 2 μm larger than the nucleus, within the range (1-3 μm) used by previously reported high content screens (Ding et al., 1998, J Biol Chem. 273:28897-28905; Peeraniet al., 2007, EMBO J. 26:4744-4755). The ratio of the median intensities of the nuclear and surrounding region of the GFP or mCherry (as appropriate) image were collected for every cell examined. Those cells falling below a threshold of intensity (10% of the maximum intensity of the image) were discarded as ‘untransfected’. Typically, 20-60 transfected cells from 15-30 images were examined for each experimental condition.

U2OS(GIGI) cells = assay: GIGI in lysates, stably transfected U2OS(GIGI) cells; type: cell-based
Excerpt: RFUs are expressed±standard deviation (Excel). The maximum induction level is defined as RFUmax. Data were processed using Kaleidagraph and GraphPad Prism software. RFU=([I530]/[I580])−([I′530]/[I′580]) (1)
Y=Ymin+(Ymax−Ymin)/(1+10^logEC50-X) (2)

Saos-2(GIGT) cells = assay: GIGT high-content imaging in stably transfected Saos-2(GIGT) cells; type: cell-based, human; conditions: 1 μM, 30 min
Description: Saos2(GIGT) cells were plated onto 384-well plates (2,500 cells/well) in 40 μL of full McCoy's 5A and allowed to adhere overnight. […] Following treatment, cells were fixed with 4% paraformaldehyde for 20 min at room temperature and washed with PBS. […] Translocation ratios were determined using Acapella high content imaging and analysis software, with a script that processed the images in a manner similar to the CellProfiler pipeline described in the Supporting Information. Each data point represents 30-60 images containing over 100 cells.

K^RhodGPSQPTYPGDDAPVRDLIRFYRDLQRYLRVVTRHRY-NH2 (KGPSQPTYPGDDAPVRDLIRFYRDLQRYLRVVTRHRY; N-terminal rhodamine-labeled Lys; C-terminal amide; (1)..(1) rhodamine) [5.2R]
uptake efficiency, fold better than that of Tat or Arg8 (HeLa cells): ≥ 2 fold

GPSQPTYPGDDAPVEDLIRFYNDLQQYLNVVTRHRYC^FLU-NH2 (fluorescein label; C-terminal amide; (37)..(37) fluorescein) [aPPF, reference compound]
increase in cell fluorescence (HeLa cells): < 3 fold

CC[C@H](C)[C@H](NC(=O)[C@H](CC(C)C)NC(=O)[C@H](CC(=O)O)NC(=O)[C@H](CCCNC(=N)N)NC(=O)[C@@H](NC(=O)[C@@H]1CCCN1C(=O)[C@H](C)NC(=O)[C@H](CC(=O)O)NC(=O)[C@H](CC(=O)O)NC(=O)CNC(=O)[C@@H]1CCCN1C(=O)[C@H](Cc1ccc(O)cc1)NC(=O)[C@@H](NC(=O)[C@@H]1CCCN1C(=O)[C@H](CCC(N)=O)NC(=O)[C@H](CO)NC(=O)[C@@H]1CCCN1C(=O)CNC(=O)[C@@H](N)CCCCNS(=O)(=O)c1ccc(-c2c3ccc(=[N+](CC)CC)cc-3oc3cc(N(CC)CC)ccc23)c(S(=O)(=O)[O-])c1)[C@@H](C)O)C(C)C)C(=O)N[C@@H](CCCNC(=N)N)C(=O)N[C@@H](Cc1ccccc1)C(=O)N[C@@H](Cc1ccc(O)cc1)C(=O)N[C@@H](CCCNC(=N)N)C(=O)N[C@@H](CC(=O)O)C(=O)N[C@@H](CC(C)C)C(=O)N[C@@H](CCCNC(=N)N)C(=O)N[C@@H](CCCNC(=N)N)C(=O)N[C@@H](Cc1ccc(O)cc1)C(=O)N[C@@H](CC(C)C)C(=O)N[C@@H](CC(N)=O)C(=O)N[C@H](C(=O)N[C@H](C(=O)N[C@H](C(=O)N[C@@H](CCCNC(=N)N)C(=O)N[C@@H](Cc1c[nH]cn1)C(=O)N[C@@H](CCCNC(=N)N)C(=O)N[C@@H](Cc1ccc(O)cc1)C(N)=O)[C@@H](C)O)C(C)C)C(C)C [5.3R] (H-K(X1)GPSQPTYPGDDAPVRDLIRFYRDLRRYLNVVTRHRY-NH2)
uptake efficiency, fold better than that of Tat or Arg8 (HeLa cells): ≥ 2 fold

CC[C@H](C)[C@H](NC(=O)[C@H](CC(C)C)NC(=O)[C@H](CC(=O)O)NC(=O)[C@H](CCCNC(=N)N)NC(=O)[C@@H](NC(=O)[C@@H]1CCCN1C(=O)[C@H](C)NC(=O)[C@H](CC(=O)O)NC(=O)[C@H](CC(=O)O)NC(=O)CNC(=O)[C@@H]1CCCN1C(=O)[C@H](Cc1ccc(O)cc1)NC(=O)[C@@H](NC(=O)[C@@H]1CCCN1C(=O)[C@H](CCC(N)=O)NC(=O)[C@H](CO)NC(=O)[C@@H]1CCCN1C(=O)CNC(=O)[C@@H](N)CCCCNC(=O)CCSCC(=O)[C@@]1(O)[C@H](C)C[C@H]2[C@@H]3CCC4=CC(=O)C=C[C@]4(C)[C@@]3(F)[C@@H](O)C[C@@]21C)[C@@H](C)O)C(C)C)C(=O)N[C@@H](CCCNC(=N)N)C(=O)N[C@@H](Cc1ccccc1)C(=O)N[C@@H](Cc1ccc(O)cc1)C(=O)N[C@@H](CCCNC(=N)N)C(=O)N[C@@H](CC(=O)O)C(=O)N[C@@H](CC(C)C)C(=O)N[C@@H](CCCNC(=N)N)C(=O)N[C@@H](CCCNC(=N)N)C(=O)N[C@@H](Cc1ccc(O)cc1)C(=O)N[C@@H](CC(C)C)C(=O)N[C@@H](CC(N)=O)C(=O)N[C@H](C(=O)N[C@H](C(=O)N[C@H](C(=O)N[C@@H](CCCNC(=N)N)C(=O)N[C@@H](Cc1c[nH]cn1)C(=O)N[C@@H](CCCNC(=N)N)C(=O)N[C@@H](Cc1ccc(O)cc1)C(N)=O)[C@@H](C)O)C(C)C)C(C)C [5.3Dex] (H-K(X2)GPSQPTYPGDDAPVRDLIRFYRDLRRYLNVVTRHRY-NH2)
effect of bafilomycin on TR ([1]; 200 nM bafilomycin pretreatment 1 h, then 1 μM): completely blocked the increase in TR | TR in the presence of wortmannin ([1]; 200 nM wortmannin, 1 μM, 30 min): 2.36±0.08 | translocation ratio (TR) ([1]; 1 μM, 30 min): 3.1±0.1 | TR in the absence of wortmannin ([1]; 1 μM, 30 min, control of the wortmannin experiment): 2.76±0.10 | effect of EIPA on TR ([1]; 50 μM EIPA pretreatment 30 min, then 1 μM, 30 min): reduced, to background levels | effect of dynasore on TR ([1]; 80 μM dynasore pretreatment 30 min, then 1 μM, 30 min): reduced, to background levels | effect of methyl-β-cyclodextrin (MβCD) on TR ([1]; 5 mM MβCD pretreatment 30 min, then 1 μM, 30 min): reduced, to background levels | TR (GR-mCherry), Rab5Q79L-GFP expressing cells ([2]; 1 μM, 30 min, Rab5Q79L-GFP): 1.90±0.07 | TR (GR-mCherry), Rab5-GFP expressing cells ([2]; 1 μM, 30 min, wild-type Rab5-GFP): 1.80±0.08 | effect of Rab5Q79L on ability to reach the cytoplasm / TR ([2]; overexpression of Rab5Q79L-GFP): no effect | EC50 fold lower than that of 4.3Dex (U2OS(GIGI) cells): approximately 10 fold | eGFP expression (U2OS(GIGI) cells; 1 μM, lysates): significant eGFP expression | EC50 (U2OS(GIGI) cells; Dex-labeled peptides, 24 h, lysates, read-out: EC50 (eGFP expression, GIGI)): 52.9 nM | translocation ratio (TR), GR★-GFP (Saos-2(GIGT) cells): 4.01±0.30

GPSQPTYPGDDAPVEDLIRFYNDLQRYLNVVTRHRYC^FLU-NH2 (fluorescein label; C-terminal amide; (37)..(37) fluorescein) [2.1F]
increase in cell fluorescence (HeLa cells): < 3 fold

GPSQPTYPGDDAPVEDLIRFYRDLQQYLNVVTRHRYC^FLU-NH2 (fluorescein label; C-terminal amide; (37)..(37) fluorescein) [2.2F]
increase in cell fluorescence (HeLa cells): < 3 fold

CC[C@H](C)[C@H](NC(=O)[C@H](CC(C)C)NC(=O)[C@H](CC(=O)O)NC(=O)[C@H](CCCNC(=N)N)NC(=O)[C@@H](NC(=O)[C@@H]1CCCN1C(=O)[C@H](C)NC(=O)[C@H](CC(=O)O)NC(=O)[C@H](CC(=O)O)NC(=O)CNC(=O)[C@@H]1CCCN1C(=O)[C@H](Cc1ccc(O)cc1)NC(=O)[C@@H](NC(=O)[C@@H]1CCCN1C(=O)[C@H](CCC(N)=O)NC(=O)[C@H](CO)NC(=O)[C@@H]1CCCN1C(=O)CNC(=O)[C@@H](N)CCCCNC(=O)CCSCC(=O)[C@@]1(O)[C@H](C)C[C@H]2[C@@H]3CCC4=CC(=O)C=C[C@]4(C)[C@@]3(F)[C@@H](O)C[C@@]21C)[C@@H](C)O)C(C)C)C(=O)N[C@@H](CCCNC(=N)N)C(=O)N[C@@H](Cc1ccccc1)C(=O)N[C@@H](Cc1ccc(O)cc1)C(=O)N[C@@H](CCCNC(=N)N)C(=O)N[C@@H](CC(=O)O)C(=O)N[C@@H](CC(C)C)C(=O)N[C@@H](CCC(N)=O)C(=O)N[C@@H](CCCNC(=N)N)C(=O)N[C@@H](Cc1ccc(O)cc1)C(=O)N[C@@H](CC(C)C)C(=O)N[C@@H](CC(N)=O)C(=O)N[C@H](C(=O)N[C@H](C(=O)N[C@H](C(=O)N[C@@H](CCCNC(=N)N)C(=O)N[C@@H](Cc1c[nH]cn1)C(=O)N[C@@H](CCCNC(=N)N)C(=O)N[C@@H](Cc1ccc(O)cc1)C(N)=O)[C@@H](C)O)C(C)C)C(C)C [4.2Dex] (H-K(X2)GPSQPTYPGDDAPVRDLIRFYRDLQRYLNVVTRHRY-NH2)
translocation ratio (TR) ([1]; 1 μM, 30 min): 1.18±0.04

GPSQPTYPGDDAPVEDLIRFYRDLQRYLNVVTRHRYC^FLU-NH2 (fluorescein label; C-terminal amide; (37)..(37) fluorescein) [3.2F]
increase in cell fluorescence (HeLa cells): < 3 fold
